Patent US20180170995A1 (LEVICEPT, published 2018)

T1: neurotrophin-4 (NT-4) (UniProt P34130 81-210)
T1 construct: also called NT-4/5; NT4/5
T1 sequence (looked up): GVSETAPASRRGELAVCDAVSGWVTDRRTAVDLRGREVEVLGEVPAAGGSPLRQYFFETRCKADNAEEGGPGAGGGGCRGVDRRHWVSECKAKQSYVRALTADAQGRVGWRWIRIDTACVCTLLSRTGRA

T2: neurotrophin-3 (NT-3) (UniProt P20783 139-257)
T2 sequence (looked up): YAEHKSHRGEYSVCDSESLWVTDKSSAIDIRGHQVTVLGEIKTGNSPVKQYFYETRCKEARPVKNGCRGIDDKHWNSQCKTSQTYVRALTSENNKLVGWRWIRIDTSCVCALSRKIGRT

T3: brain-derived neurotrophic factor (BDNF) (UniProt P23560 129-247)
T3 sequence (looked up): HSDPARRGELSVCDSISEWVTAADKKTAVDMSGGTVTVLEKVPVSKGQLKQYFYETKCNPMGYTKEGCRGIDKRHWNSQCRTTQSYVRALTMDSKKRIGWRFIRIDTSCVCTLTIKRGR

B1: Truncated p75NTR(NBP)-Fc fusion protein (SEQ ID No. 1) (Fc fusion)
chain: KEACPTGLYTHSGECCKACNLGEGVAQPCGANQTVCEPCLDSVTFSDVVSATEPCKPCTECVGLQSMSAPCVEADDAVCRCAYGYYQDETTGRCEACRVCEAGSGLVFSCQDKQNTVCEECPDGTYSDEANHVDPCLPCTVCEDTERQLRECTRWADAECEEIPGGGG[human IgG1 Fc with changes not shown]
notes: The Rmax calculation uses a fusion protein molecular weight of 87,000; also called Truncated p75NTR-Fc; Truncated p75-Fc
B2: p75NTR(NBP)-Fc fusion including stalk region (SEQ ID No. 3) (Fc fusion)
chain: KEACPTGLYTHSGECCKACNLGEGVAQPCGANQTVCEPCLDSVTFSDVVSATEPCKPCTECVGLQSMSAPCVEADDAVCRCAYGYYQDETTGRCEACRVCEAGSGLVFSCQDKQNTVCEECPDGTYSDEANHVDPCLPCTVCEDTERQLRECTRWADAECEEIPGRWITRSTPPEGSDSTAPSTQEPEAPPEQDLIASTVAGVVTTVMGGGG[human IgG1 Fc with changes not shown]
notes: also called p75NTR-Fc

What was measured:
[1] = molecular target: T1, neurotrophin-4 (NT-4); experiment: SPR (Biacore T200), fusion protein captured on Protein A chip, single cycle kinetics, 1:1 model
[2] = molecular target: T2, neurotrophin-3 (NT-3); experiment: as above
[3] = molecular target: T3, brain-derived neurotrophic factor (BDNF); experiment: as above
[4] = molecular target: T4, nerve growth factor (NGF) (UniProt P01138 partial chain, limits assumed); experiment: as above
[5] = molecular target: T1, neurotrophin-4 (NT-4); experiment: cell-based or functional assay
[6] = molecular target: T2, neurotrophin-3 (NT-3); experiment: cell-based or functional assay
[7] = molecular target: T4, nerve growth factor (NGF); experiment: cell-based or functional assay
T4 sequence (P01138 122-241 limits assumed): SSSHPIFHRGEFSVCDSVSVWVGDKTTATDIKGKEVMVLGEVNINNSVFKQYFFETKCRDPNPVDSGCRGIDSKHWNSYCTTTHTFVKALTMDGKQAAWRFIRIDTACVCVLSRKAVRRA

[8] = molecular target: T1, neurotrophin-4 (NT-4); experiment: SPR (Biacore), corresponding figures for the reference fusion protein
[9] = molecular target: T2, neurotrophin-3 (NT-3); experiment: as above
[10] = molecular target: T3, brain-derived neurotrophic factor (BDNF); experiment: as above
[11] = molecular target: T4, nerve growth factor (NGF); experiment: as above

| Binder | Kd [1] [nM] | Kd [2] [nM] | Kd [3] [nM] | Kd [4] [nM] | IC50, inhibition of NT-4-induced activation of TrkB [5] [nM] | IC50, inhibition of NT-3-induced activation of TrkC [6] [nM] | IC50, inhibition of NGF-induced activation of TrkA [7] [nM] | Kd [8] [nM] | Kd [9] [nM] | Kd [10] [nM] | Kd [11] [nM] |
| --- | --- | --- | --- | --- | --- | --- | --- | --- | --- | --- | --- |
| B1 | 0.1 | 0.02 | 0.05 | 0.5 | 1 | 0.5 | 1.5 |  |  |  |  |
| B2 |  |  |  |  |  |  |  | 0.181 | 0.014 | 0.048 | 0.525 |
